Assay results from the supplement of paper PMC12217912.
This is one part of the list. Sequences were assembled here from the parent chain. Inactive controls read about 0.05.

B1: TEV protease; numbered along this chain (parent)
chain: MGESLFKGPRDYNPISSSICHLTNESDGHTTSLYGIGFGPFIITNKHLFRRNNGTLVVQSLHGVFKVKDTTTLQQHLVDGRDMIIIRMPKDFPPFPQKLKFREPQREERICLVTTNFQTKSMSSMVSDTSCTFPSGDGIFWKHWIQTKDGQCGSPLVSTRDGFIVGIHSASNFTNTNNYFTSVPKNFMELLTNQEAQQWVSGWRLNADSVLWGGHKVFMVKPEEPFQPVKEATQL

Variants of: B1
Test: raw area under fraction-flipped curve 0-4 h after induction (AUC4h, not background-subtracted), DNA-recorder readout of cleavage of the substrate (dimensionless); higher = more cleavage of the substrate by the protease variant
Conditions: temperature: 34 °C; time window: 0-4 h after rhamnose induction
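Note: Bxb1 expression induced with 0.2% (w/v) L-rhamnose at OD600 near 0.5, cultures sampled hourly, flipped fraction per protease–substrate barcode pair counted by paired-end Illumina sequencing.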

Variant | area with substrate ENLYFCS | area with substrate ENLYFDS | area with substrate ENLYFES | area with substrate ENLYFFS | area with substrate ENLYFGS | area with substrate ENLYFHS | area with substrate ENLYFIS | area with substrate ENLYFKS | area with substrate ENLYFMS | area with substrate ENLYFPS | area with substrate ENLYFRS | area with substrate ENLYFTS | area with substrate ENLYFVS | area with substrate ENLYFWS | area with substrate ENLYFYS | area with substrate ENLYFNS | area with substrate ENLYFSS | area with substrate ENLYFAS | area with substrate ENLYFLS
P40H | 0.0618 | 0.0611 | 0.0674 | 0.0514 | 0.0586 | 0.0663 | 0.0492 | 0.0655 | 0.0694 | 0.0609 | 0.0762 | 0.0597 | 0.0469 | 0.0531 | 0.0658 | – | – | – | –
P40R | 0.0694 | – | 0.071 | 0.0666 | 0.061 | – | 0.0518 | 0.0598 | 0.0811 | – | 0.0697 | 0.0587 | – | – | 0.0548 | 0.0589 | 0.0581 | – | –
F226C | 0.0713 | 0.0526 | 0.0745 | – | 0.059 | – | 0.0559 | 0.0474 | 0.073 | 0.0559 | 0.0613 | 0.0513 | 0.0488 | 0.0478 | 0.0632 | – | – | 0.0553 | –
V200L | – | 0.0475 | 0.0521 | 0.0814 | – | 0.082 | 0.0458 | – | – | 0.0621 | – | – | – | – | – | 0.0549 | 0.049 | 0.0542 | –
V200T | – | – | 0.0683 | 0.0638 | – | – | 0.053 | 0.074 | – | 0.0734 | – | – | – | – | 0.0634 | – | – | 0.0538 | 0.0656
V200P | 0.0708 | – | 0.0565 | – | 0.0694 | – | 0.0647 | – | 0.102 | 0.0531 | 0.0646 | – | – | – | – | 0.058 | – | 0.0606 | –
P96S | 0.0243 | – | 0.0784 | 0.0673 | – | – | 0.0488 | 0.0894 | 0.0748 | – | – | 0.0552 | – | – | 0.0658 | – | 0.0572 | – | 0.067
P96M | 0.0773 | 0.0721 | 0.0671 | 0.0636 | – | 0.0383 | 0.0503 | 0.0742 | 0.0606 | – | – | 0.039 | 0.0703 | – | – | 0.055 | – | – | –
P96N | 0.052 | 0.0632 | 0.0547 | 0.0046 | 0.0674 | 0.0594 | 0.0598 | 0.0595 | 0.0669 | 0.0619 | 0.0559 | 0.0685 | 0.0436 | – | 0.0559 | 0.0752 | – | – | 0.0645
G8S | 0.0502 | – | – | – | 0.0592 | – | 0.0481 | 0.0698 | 0.0669 | 0.0574 | – | – | 0.0668 | – | – | – | – | – | –
G8F | 0.0665 | – | – | 0.0602 | – | – | – | – | 0.0691 | 0.0584 | – | – | 0.0855 | – | 0.0709 | – | – | – | –
G8P | 0.0736 | 0.03 | – | 0.053 | 0.0694 | 0.0582 | 0.0489 | – | 0.0658 | – | 0.0708 | 0.0591 | – | – | – | – | – | – | –
K216G | 0.057 | – | 0.0634 | 0.0655 | 0.0661 | 0.0498 | 0.0495 | 0.0626 | – | 0.0494 | 0.0445 | 0.0495 | – | 0.052 | – | 0.0555 | 0.0287 | 0.0545 | –
K216F | 0.0551 | – | 0.0407 | 0.0565 | – | – | 0.0579 | – | 0.059 | 0.0541 | 0.056 | – | – | 0.0552 | – | 0.0583 | – | 0.0566 | –
K216H | 0.0588 | – | 0.0645 | 0.0705 | – | – | 0.0511 | – | – | 0.0535 | – | 0.0528 | 0.0533 | 0.0533 | – | 0.0569 | 0.0586 | 0.0523 | –
K216S | – | – | – | – | – | 0.0661 | – | – | – | 0.0631 | – | 0.0468 | 0.0487 | – | 0.0774 | 0.0679 | – | 0.0528 | –

Variant | area with substrate ENLYFCS | area with substrate ENLYFDS | area with substrate ENLYFES | area with substrate ENLYFFS | area with substrate ENLYFGS | area with substrate ENLYFHS | area with substrate ENLYFIS | area with substrate ENLYFKS | area with substrate ENLYFMS | area with substrate ENLYFPS | area with substrate ENLYFRS | area with substrate ENLYFTS | area with substrate ENLYFVS | area with substrate ENLYFWS | area with substrate ENLYFYS | area with substrate ENLYFNS | area with substrate ENLYFSS | area with substrate ENLYFAS | area with substrate ENLYFLS
K216R | – | – | 0.0646 | – | – | – | – | – | – | – | – | 0.0544 | 0.0551 | – | – | 0.0864 | 0.0483 | 0.0506 | –
K216D | – | – | – | – | – | – | 0.0735 | – | – | – | – | – | – | 0.0497 | – | – | – | 0.062 | –
A232K | 0.05 | – | 0.0711 | 0.0731 | – | 0.0791 | 0.0626 | 0.0712 | – | 0.0526 | – | – | 0.06 | 0.0668 | 0.0104 | 0.0505 | 0.0404 | 0.0546 | –
A232W | 0.0849 | 0.0638 | – | – | – | 0.0446 | 0.0491 | – | 0.066 | – | 0.0423 | 0.0589 | – | 0.0601 | – | 0.0576 | – | 0.047 | –
A232V | 0.0736 | – | 0.0767 | – | – | – | 0.0503 | 0.061 | 0.0765 | 0.0555 | – | – | 0.0575 | 0.0631 | – | 0.0697 | – | 0.0607 | –
D208Q | 0.056 | – | 0.0559 | 0.0667 | – | 0.0545 | 0.0563 | 0.0548 | 0.0645 | 0.0584 | 0.0559 | 0.0524 | 0.0555 | – | 0.0475 | 0.0556 | 0.0514 | 0.0629 | –
D208S | – | – | 0.0743 | – | – | – | – | – | 0.0712 | – | 0.0442 | 0.0676 | – | – | – | – | 0.0558 | 0.0635 | –
D208V | 0.0775 | 0.0504 | 0.0528 | 0.0656 | – | 0.0676 | 0.0609 | – | 0.0585 | 0.0624 | 0.0565 | 0.0596 | – | 0.072 | 0.0511 | 0.0542 | 0.0622 | 0.0637 | 0.0557
N24Y | 0.0561 | – | 0.0704 | – | – | – | 0.0635 | 0.0622 | 0.0767 | 0.052 | 0.058 | – | – | 0.058 | 0.0552 | 0.0515 | 0.0672 | – | 0.0557
N13V | 0.051 | 0.0457 | 0.063 | 0.0685 | 0.0529 | 0.0627 | 0.0603 | 0.0659 | 0.0646 | 0.063 | 0.0594 | 0.0488 | – | 0.0812 | 0.0612 | 0.0648 | 0.0561 | – | 0.0447
S16D | 0.0566 | 0.0468 | 0.0623 | 0.0705 | – | 0.0658 | 0.0569 | 0.0316 | 0.0642 | 0.0616 | 0.0315 | 0.066 | – | 0.0563 | – | 0.055 | 0.0537 | – | 0.0596
S16E | 0.0455 | 0.037 | 0.0677 | 0.07 | 0.0607 | 0.0674 | 0.0562 | 0.0579 | 0.068 | 0.0599 | 0.0534 | 0.0702 | 0.0523 | 0.0604 | – | 0.0606 | 0.0927 | – | 0.0642
P93S | 0.0604 | – | 0.0657 | – | – | 0.0568 | 0.0451 | – | 0.0817 | – | – | 0.0557 | – | 0.0637 | – | 0.0636 | – | – | –
P104D | 0.0791 | – | 0.0566 | – | – | – | 0.0506 | 0.0429 | 0.0587 | 0.0508 | – | 0.0385 | 0.0463 | – | – | 0.0579 | 0.0487 | – | 0.0489
P104T | 0.0458 | 0.0512 | 0.0518 | – | – | – | – | – | 0.0596 | – | 0.0423 | – | – | – | 0.0684 | – | 0.0437 | – | 0.0799
R204K | – | – | 0.0675 | 0.0855 | – | – | 0.0597 | 0.0643 | 0.0742 | – | 0.0691 | 0.0554 | – | 0.0417 | 0.0508 | – | 0.0652 | 0.054 | –
